Experimental data reported in paper PMC12136788.
The list shows a part of the results.

B1: chr6:122456482:122456612:-|CDS|ENSG00000111897|unk|FALSE|unique (ssRNA)
RNA: GGGAGUUCUACAGUCCGACGAUCUGCUUUGGUUUGGCUAUGUUCUAUCUUCUUCUCUCUUUACUAAUGAUCAAAGUGAAGAGUAGCAGUGAUCCUAGAGCUGCAGUGCACAAUGGGUAAGUUUUUAAAUAAGCUUCAAUAUAACAACAGAGGAUUGAGCAUCA
B2: chr5:96979339:96979440:+|CDS|ENSG00000113441|unk|total|mutant (ssRNA)
RNA: GGGAGUUCUACAGUCCGACGAUCGAGGAGGAUGAAGAGGAUUAUGAGUCAUCAGCAAAGCUGCUGGGCAUGUCCUUCAUGAACCGAAGCUCAGGCCUUCGGAACAGUGCAACUGGUUACAGGCAGAGCCCAGAUGGGGCUUGUCAACAGAGGAUUGAGCAUCA
B3: chr17:78107396:78113211:-|three_prime_utr|ENSG00000141524|control|control|control (ssRNA)
RNA: GGGAGUUCUACAGUCCGACGAUCUUGGGACAACCGAGGAGGCUGCGGCACCCCCUGCCCUGCUCACAGAUGAACAGGAUGCCUAGGGGGACGGCGAUGGGCCUCACGGGCCCGCCCAGCACCCUGAGACCACACUGUUGCCUCCAACAGAGGAUUGAGCAUCA
B4: ENSG00000160209:stop:overlap|stop_codon|ENSG00000160209|stop_codon|NA|stop_codon (ssRNA)
RNA: GGGAGUUCUACAGUCCGACGAUCCCUUGACCUCCUGGGCUGAAGCAAUCUUUCUGCCUCCACCUCCCGAGUGGCUGGGACUAUAGUUGUGCACCAGCACGCCCACCUCCUGCCCAGGGUUGUUACUGGGGUGGUCACGUGGGCCAACAGAGGAUUGAGCAUCA
B5: chr5:173316221:173316322:-|3pUTR|ENSG00000113739|msi1|FALSE|unique (ssRNA)
RNA: GGGAGUUCUACAGUCCGACGAUCAGUACUUUCAGUUUGGCGAGCCGUGAGGUCUCUGUCGAAACUACUCAACUCUGCCGUCCUAGCACAAAAGCAGCCAUAGACAACACACAAACGAGAGGGCUUGGCUCCCUUCCAGGAAGACAACAGAGGAUUGAGCAUCA
B6: chr2:96301550:96301651:-|CDS|ENSG00000144028|msi1|FALSE|unique (ssRNA)
RNA: GGGAGUUCUACAGUCCGACGAUCAAGGCGAAAGGAGAUUGACCUGCUGCUGGGUCAAACAGAUGAUACCAGAUACCAUGUGCUAGUGAACCUGGGCAAAAAGAUCACAGACUAUGGUGGAGAUAAGGAAAUCCAAAAUAUGGGCAACAGAGGAUUGAGCAUCA
B7: chrX:106900062:106900748:-|three_prime_utr|ENSG00000147223|control|control|control (ssRNA)
RNA: GGGAGUUCUACAGUCCGACGAUCGAGGCAGCCAGAGUCUGAUUGGGGUUCAGUUUGUCUGGCAAGUUUUCACAGACAUCAGUUAGCCGGAAGUAUUAGUCCAGCAGAUAGAGCUUUCUGGACUGAAAAUUGGGUCAUCUAGCUCAACAGAGGAUUGAGCAUCA
B8: chr9:101390727:101390839:-|CDS|ENSG00000136897|unk|total|mutant (ssRNA)
RNA: GGGAGUUCUACAGUCCGACGAUCCAGAAAAGAGAAAGAGCCAGUGGUUGUUGAGACAGCCGAAGAGAAAAAGGAACCUAUCCCCGUGUGUCCACCUUUACGAAGCCGAGCAUACACACCACCUGAAGAUCUCCAGAGUCGUUUCAACAGAGGAUUGAGCAUCA
B9: ENSG00000136451:be:win_2901|3pUTR|ENSG00000136451|bound_else_gene|NA|bound_elsewhere_windowed (ssRNA)
RNA: GGGAGUUCUACAGUCCGACGAUCUCUUUACACCAUCAUGCCACGCAUUGUUUUUAAAGCAUUGCGUUAAAAAAAAAAUUAACUAAACCAAGAUGCUGUGAUUUUUUAAGUUGCAAUAUGUUUUUGGUUUUUUUCAUUUUUUAACAACAGAGGAUUGAGCAUCA
B10: chr1:202941098:202941199:-|3pUTR|ENSG00000159346|msi1_unk|FALSE|overlapping (ssRNA)
RNA: GGGAGUUCUACAGUCCGACGAUCCCUCCCUUACCCCCAUCCUUAACUUUGUAUCCUGGCUUAUAACAGGCCAUCCAUUUUUGUAGCACACUUUUCAAAAACAAUUAUAUACCCUGGUCCCAUCUUUCUAGGGCCUGGAUCUGCCAACAGAGGAUUGAGCAUCA
B11: ENSG00000198589:be:win_1601|CDS|ENSG00000198589|bound_else_gene|NA|bound_elsewhere_windowed (ssRNA)
RNA: GGGAGUUCUACAGUCCGACGAUCAGUCUUCCAAAUCUCAUGUUAGCAGAGCAGUACUUGAACUUUGCCUUGCAUUUUCAAAAUAUCUGAGUAAUCUGCAGAAUGGGAUGCCCCUGCUCAAGCAAUUGUGUGAUCACGUUCUUCCAACAGAGGAUUGAGCAUCA
B12: ENSG00000116560:stop:overlap|stop_codon|ENSG00000116560|stop_codon|NA|stop_codon (ssRNA)
RNA: GGGAGUUCUACAGUCCGACGAUCCAGCAGGAUAUGGUAGAGGGAGAGAAGAGUACGAAGGCCCAAACAAAAAACCCCGAUUUUAGAUGUGAUAUUUAGGCUUUCAUUCCAGUUUGUUUUGUUUUUUUGUUUAGAUACCAAUCUCAACAGAGGAUUGAGCAUCA
B13: chr2:226864888:226864989:+|CDS|ENSG00000144468|unk|total|mutant (ssRNA)
RNA: GGGAGUUCUACAGUCCGACGAUCUGCUGAUGAUUGGCAUUUGUAUUUCAAUAUGGCAUCCAUGCUCUGGAAAGGAAUAAAUCCCGAAAGAAGACUGGGAAGCCGAUGGUUUGCCUAUGUUAUCACCGCAUUUUCUGUACUUACCAACAGAGGAUUGAGCAUCA
B14: chr4:24540214:24540319:-|CDS|ENSG00000109606|unk|total|mutant (ssRNA)
RNA: GGGAGUUCUACAGUCCGACGAUCUACUUUGUCACAUUUUUGCUUGCUUAAGGCACCGUGUCUAACCGAUUGUCUUUUACCACCCGCUCCUGAAACUCUGAUGAGAGCCCUGGAACUUUUGAAUUACCUGGCUGCUUUAAAUGACAACAGAGGAUUGAGCAUCA
B15: chr11:70485313:70487720:-|CDS|ENSG00000162105|control|control|control (ssRNA)
RNA: GGGAGUUCUACAGUCCGACGAUCUGGGGCGACGUCACAGAGAUCAAAAGCCCGAUUCUCUCAGGCCCAAAGGCAAACGUUAUUAGUGAAUUGAACUCUAUCCUACAGCAAAUGAACCGAGAGAAAUUGGCAAAGCCGGGGGAACAACAGAGGAUUGAGCAUCA
B16: ENSG00000198589:be:win_1451|CDS|ENSG00000198589|bound_else_gene|NA|bound_elsewhere_windowed (ssRNA)
RNA: GGGAGUUCUACAGUCCGACGAUCAUUACAGGCAAUAUUUGUCUGAUGAGAUUGAUUUGACUAUAUGUUCAACCUUGCUGGCCUUUAUCAUGGAAUUGUUGAAGAACUCAAUUGCUAUGCAGGAACAGAUGCUUGCCUGUAAGGCAACAGAGGAUUGAGCAUCA
B17: chr7:138585310:138585366:+|3pUTR|ENSG00000122779|msi1_unk|FALSE|overlapping (ssRNA)
RNA: GGGAGUUCUACAGUCCGACGAUCCUCUUUAAGUUGAAAAGUAAAAAAUAUAUGUGGUUUGGAUGUGUGCUUUAAUUCAGCUUUAGAAAUUAAUACCACUACCCGUGAAUUAUAUGGCCUGACAAUAUGAAUUAGGUGUACUGUCAACAGAGGAUUGAGCAUCA
B18: chr9:88477803:88477904:+|3pUTR|ENSG00000106723|msi1|total|mutant (ssRNA)
RNA: GGGAGUUCUACAGUCCGACGAUCGACAAUACAAGACAUGAAUCUAUGUAUAAAAUUUAUCGGCCUUUCUCAUUUACCUGCUCCCGUAUUAUUGUAUUGUGUGUGCGUGCGUGUGUGAUGUCAGGCUGCCACGUAAAACUUCAGCAACAGAGGAUUGAGCAUCA
B19: chr1:84929557:84929679:-|CDS|ENSG00000153898|control|control|control (ssRNA)
RNA: GGGAGUUCUACAGUCCGACGAUCAAAUUCCAACAGAAUGGGUUUCCUGAAACGGAUUUGCAGGAAUUCCUGAAGGAAUGCAGUAGCAAAGAAGAGUAUCAGAAAGAGUCCUCAGCCUUCCUGUCCUGCAUCUGCUGUCGGAGGCAACAGAGGAUUGAGCAUCA
B20: chr3:31636526:31636632:+|3pUTR|ENSG00000163527|unk|total|mutant (ssRNA)
RNA: GGGAGUUCUACAGUCCGACGAUCCAAAAUGUGAUGAGAGCUUCUUGAACCGGUAAACCCGUACAGGUCUGAGAAAGACAUAUCCGAAGAAUCAUUAUACUUCCUUGAAUUAUAUUUAUUUUCAUGUUUCUCUAAUGCAAAGAACAACAGAGGAUUGAGCAUCA
B21: chr9:34253332:34253433:-|3pUTR|ENSG00000186638|unk|total|mutant (ssRNA)
RNA: GGGAGUUCUACAGUCCGACGAUCCUCUGAAACAGAAUUCACACACAAACCUUCAGCCAAGUUCUGCCUGCUGUGUAUCUUUUCCGCAGGAAGCAGCUCAGGACAGGGAAGACAAAGCCGCCUCCAGGUGCCAAUUACUUUAAACAACAGAGGAUUGAGCAUCA
B22: chr5:113567122:113567223:+|CDS|ENSG00000047188|unk|total|mutant (ssRNA)
RNA: GGGAGUUCUACAGUCCGACGAUCAAACUCUGAGAAUUGGGCUGUCGUUAAAGCUGCAUUGGUGGCAGGCAUGUAUCCUAAUUCCGUCCACGUGGACAGAGAGAAUCCCGUGUUGACAGGGCCAAAGGAGAAAAAAGUACGAUUCAACAGAGGAUUGAGCAUCA

Biological target: MSI1 full-length (mouse, UniProt Q61474 1-362)
Sequence of UniProt Q61474 (Q61474 whole entry): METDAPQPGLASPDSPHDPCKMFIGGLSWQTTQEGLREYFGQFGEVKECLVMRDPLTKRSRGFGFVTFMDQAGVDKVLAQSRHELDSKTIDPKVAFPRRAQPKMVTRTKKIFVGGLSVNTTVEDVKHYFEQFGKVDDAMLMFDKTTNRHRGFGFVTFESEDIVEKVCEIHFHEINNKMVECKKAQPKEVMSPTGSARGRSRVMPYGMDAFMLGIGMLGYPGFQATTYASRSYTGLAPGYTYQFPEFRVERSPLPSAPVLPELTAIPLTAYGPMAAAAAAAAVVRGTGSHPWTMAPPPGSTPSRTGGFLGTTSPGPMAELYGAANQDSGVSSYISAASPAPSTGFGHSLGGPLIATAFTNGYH
Experiment: nsRBNS (natural sequence RNA bind-n-seq); RBNS binding buffer (assumed for nsRBNS): 25 mM Tris pH 7.5, 150 mM KCl, 3 mM MgCl2, 0.01% Triton X-100, 500 ug/ml BSA, 20 U/ml SUPERase-In, 4 C; UNK is unkempt and MSI1 is Musashi-1; names of the RNAs are library labels; protein concentration not given here; high values mean tight binding

Row | Binder | binding signal
1 | B1 | 0.498 enrichment R
2 | B2 | 0.381 enrichment R
3 | B3 | 0.328 enrichment R
4 | B4 | 0.291 enrichment R
5 | B5 | 1.08 enrichment R
6 | B6 | 0.411 enrichment R
7 | B7 | 1.26 enrichment R
8 | B8 | 0.529 enrichment R
9 | B9 | 0.269 enrichment R
10 | B10 | 6.23 enrichment R
11 | B11 | 0.24 enrichment R
12 | B12 | 0.493 enrichment R
13 | B13 | 0.203 enrichment R
14 | B14 | 0.272 enrichment R
15 | B15 | 0.762 enrichment R
16 | B16 | 0.173 enrichment R
17 | B17 | 4.02 enrichment R
18 | B18 | 0.449 enrichment R
19 | B19 | 0.635 enrichment R
20 | B20 | 0.225 enrichment R
21 | B21 | 0.52 enrichment R
22 | B22 | 0.446 enrichment R
